In PubChem BioAssay AID504845 (National Center for Advancing Translational Sciences (NCATS), 2011):
Among all 390,000 compounds or so, about 150 (0.038%) were called active. The inconclusive results got no clear call from the source; some entries with a clear call stand among them for comparison. The call rests on the fitted dose curve; in most records, active means well fitted inhibition curve with a large enough effect; inconclusive means small, poorly fitted or top-dose-only effect; inactive means no such curve, though single readings can be large or run the other way. A potency beside an inconclusive call is a rough fit, not a confirmed value.

Biological target: Regulator of G-protein signaling 4 (Homo sapiens) (UniProt P49798)
Assay: Inhibitors of Regulator of G Protein Signaling (RGS) 4: qHTS; further: nearly all actives have a fitted effect of over 75% in size
Details: Transcreener GDP fluorescence polarization, RGS4-accelerated GTP hydrolysis; series mostly up to 114 µM
Procedure, shortened: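 MLSMR compounds (23 nl, pin-transferred) preincubated 10 min at room temperature with a 500nM (2x) first reagent, then RGS4 at 900nM (2x) plus Transcreener GDP mix added; fluorescence polarization (620/688 nm) read before and after 90 min at 30 °C.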
Potency means the concentration at half of the fitted maximal effect; tags describe the fitted curve by direction and shape.

Chain of UniProt P49798 (P49798 whole entry, looked up): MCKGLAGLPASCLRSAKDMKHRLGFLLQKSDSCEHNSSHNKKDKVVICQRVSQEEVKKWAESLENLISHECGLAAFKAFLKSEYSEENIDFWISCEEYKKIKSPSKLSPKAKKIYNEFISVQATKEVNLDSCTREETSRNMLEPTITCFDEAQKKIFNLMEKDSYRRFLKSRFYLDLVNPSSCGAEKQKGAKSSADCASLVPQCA

Structure (SMILES)	Potency
Cc1cc(N)n2nc(-c3ccc(C(C)(C)C)cc3)cc2n1	inconclusive: 89.1 µM [inhibitor, single point]
Clc1cccc(CNCCCSc2ncccn2)c1	inactive
CC[C@]12c3[nH]c4cc(-c5ccco5)ccc4c3CCN1C(=O)[C@@H](CC(=O)NCC13CC4CC(CC(C4)C1)C3)C[C@@H]2C(=O)N1CCN(C(=O)c2ccco2)CC1	inconclusive: 39.8 µM [inhibitor, partial curve, poor fit]
O=C(CN1C(=O)S/C(=C\c2ccccc2)C1=O)NNC(=O)c1ccccc1O	inconclusive: 112 µM [inhibitor, partial curve, poor fit]
Cc1ccc2cccc(OCC(=O)N3CC(C)CC(C)C3)c2n1 (centres undefined)	inactive
Cc1ccc(C(=O)CC(C(=O)O)n2cnc([N+](=O)[O-])n2)cc1 (centres undefined)	inconclusive: 79.4 µM [inhibitor, partial curve, poor fit]
N#CCC(=O)Nc1ccc(C(=O)OCC(=O)N2CCN(C(=O)c3ccco3)CC2)cc1	inconclusive: 79.4 µM [inhibitor, partial curve, poor fit]
O=C(O)c1ccc2nc(-c3ccco3)c(-c3ccco3)nc2c1	inactive
Oc1c(Br)cc(/C=N/n2c(-c3ccccc3)n[nH]c2=S)cc1Br	inconclusive: 100 µM [inhibitor, single point]
Cc1cc(O)ccc1C1(c2ccc(O)cc2C)OC(=O)c2ccccc21	inconclusive: 89.1 µM [inhibitor, single point]
CCNC(=O)NC(=O)CSc1ccc(S(=O)(=O)N2CCCCC2)cn1	inconclusive: 89.1 µM [inhibitor, single point]
Cc1nn(Cc2c(Cl)cccc2Cl)c(Cl)c1/C=N/NC(=O)c1cccnc1	inconclusive: 79.4 µM [inhibitor, single point]
CN1CCc2c(sc3c2C(=O)NC(c2ccc(OC(=O)c4ccc(Cl)cc4)cc2)N3)C1 (centres undefined)	inconclusive: 39.8 µM [inhibitor, partial curve, poor fit]
O=C(O)CN1C(=O)/C(=C\c2ccccc2OCc2ccc(F)cc2)SC1=S	inactive
CCOc1cc(/C=C2/C(=O)N(c3ccccc3)N=C2C)ccc1OC(=O)c1ccco1	inconclusive: 89.1 µM [inhibitor, partial curve, poor fit]
CCc1ccccc1Nc1nn2c(=O)c3ccc(C(=O)NCc4ccccc4Cl)cc3nc2s1	inconclusive: 44.7 µM [inhibitor, partial curve, poor fit]
N#C/C(=C\c1ccc(-c2ccc(C(=O)O)cc2)o1)c1nc2ccccc2[nH]1	inconclusive: 25.1 µM [inhibitor, full curve, poor fit]
COc1ccc2c(c1)nc(SCC(=O)C(C)(C)C)n2C	inconclusive: 56.2 µM [inhibitor, partial curve, poor fit]
CN1C(=O)c2ccccc2Sc2ccc(NC(=O)c3ccc(C#N)cc3)cc21	inactive
Cc1ccc(NCC(=O)c2ccc([N+](=O)[O-])cc2)cc1	inconclusive: 79.4 µM [inhibitor, partial curve, poor fit]

Structure (SMILES)	Potency
O=C1CC(=O)N(Cc2ccco2)C(=S)N1	inconclusive: 17.8 µM [inhibitor, full curve, poor fit]
COc1cc(/C=C2\SC(=S)N(CC(=O)Nc3ccc(O)cc3)C2=O)cc(OC)c1OC	inconclusive: 17.8 µM [inhibitor, full curve, poor fit]
Cc1nnc(C)n1/N=C/c1c(O)ccc2ccccc12	inconclusive: 100 µM [inhibitor, partial curve, poor fit]
COc1ccc(-c2oc3ccc(-c4ccc5c(c4)OCO5)cc3c2C#CC2(O)CCCCC2)cc1	inactive
CC1(C)C(/C=C/C=C/C=C/C=C2\N(CCCCS(=O)(=O)O)c3ccc4ccccc4c3C2(C)C)=[N+](CCCCS(=O)(=O)[O-])c2ccc3ccccc3c21	inconclusive: 56.2 µM [inhibitor, partial curve, poor fit]
CC(=O)N1C=CN(C(C)=O)C(c2cn(C)c3ccccc23)C1c1cn(C)c2ccccc12 (centres undefined)	inactive
CCOC(=O)N/N=C/C=C/c1ccccc1[N+](=O)[O-]	inconclusive: 89.1 µM [inhibitor, partial curve, poor fit]
COC(=O)c1ccc(-n2cncn2)c([N+](=O)[O-])c1	inconclusive: 56.2 µM [inhibitor, partial curve, poor fit]
COc1ccc(S(=O)(=O)N2CCN(C(=O)/C=C/c3ccco3)CC2)cc1	inconclusive: 50.1 µM [inhibitor, partial curve, poor fit]
O=c1cc(-c2ccccc2)nc2c(-c3ccccc3)c(C(F)(F)F)[nH]n12	inactive
CCCCn1c(=O)[nH]c(=O)c2c1nc(-c1ccc(C#N)cc1)n2C1CCCC1	inconclusive: 89.1 µM [inhibitor, single point]
Cc1nc2c(nnn2Cc2ccccc2)c(=O)[nH]1	inconclusive: 17.8 µM [inhibitor, full curve, poor fit]
COc1ccc(CNC(=O)CS(=O)(=O)c2cccc3nsnc23)cc1	inactive
CCc1nc(SCC(=O)c2ccc3c(c2)OCCO3)c2ccccc2n1	inconclusive: 79.4 µM [inhibitor, partial curve, poor fit]
C=CCn1c(CCNC(=O)c2cccs2)nnc1SCC(=O)c1ccc(Cl)cc1	inconclusive: 79.4 µM [inhibitor, partial curve, poor fit]
CC(C)c1ccc(NC(=O)/C(C#N)=C/c2ccncc2)cc1	inconclusive: 44.7 µM [inhibitor, partial curve, poor fit]
Cc1c(NC(=O)CN2c3cccc4cccc(c34)S2(=O)=O)c(=O)n(-c2ccccc2)n1C	inconclusive: 100 µM [inhibitor, partial curve, poor fit]
Cc1ccc(C2NC(=O)c3c(sc4c3CCN(C)C4)N2)s1 (centres undefined)	inactive
Cc1ccc2c(C)c(C(=O)NCCc3ccco3)oc2c1C	inconclusive: 89.1 µM [inhibitor, single point]
